# Experimental data from paper PMC12820563, “FoxP3 forms a head-to-head dimer in vivo and stabilizes its multimerization on adjacent microsatellites”.
# This is one part of the list.
# Target: T1, MBP-FoxP1dN (Mus musculus, UniProt P58462 326-579)
# T1 sequence: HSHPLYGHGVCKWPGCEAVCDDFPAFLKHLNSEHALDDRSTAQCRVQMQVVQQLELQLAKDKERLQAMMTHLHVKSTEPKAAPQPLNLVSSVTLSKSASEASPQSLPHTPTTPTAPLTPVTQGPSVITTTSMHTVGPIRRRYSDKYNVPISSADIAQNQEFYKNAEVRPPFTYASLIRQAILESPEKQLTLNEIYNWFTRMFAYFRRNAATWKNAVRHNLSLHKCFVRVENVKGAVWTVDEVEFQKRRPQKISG
# Experiment: PD-seq (MBP pull-down with sequencing); 20 mM Tris-HCl pH 7.5, 100 mM NaCl, 1.5 mM MgCl2, 0.4 uM protein, 0.1 uM dsDNA library, 30 min, room temperature, amylose pull-down; high values mean tight binding
# Conditions: protein: recombinant; tags: His6-MBP; chain copies: 2; dsDNA, one strand shown
# How it was run: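 A fragment of mouse FoxP3 or FoxP1 without its N-terminus, carrying a His6-MBP tag and produced in E. coli, was combined at 0.4 µM with a 0.1 µM degenerate double-stranded DNA library filled in with Klenow. The mixture sat for 30 min at room temperature in Tris pH 7.5 buffer containing NaCl and MgCl2. Protein–DNA complexes were captured on amylose resin, washed three times, and the DNA was freed with proteinase K, barcoded by PCR and sequenced on Illumina. Binding is expressed as reads-per-million enrichment of pull-down over input, with replicates pooled.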
row,Sequence,binding signal
1,GATGATTGTTCTCCCAGCTGATGAATTAGCGTTATCGAGTAAACAAATTTTCCTAATCTTTCTGTTCAAGCGCCATCTAC,0.967 RPM ratio (pull-down/input)
2,GATGATTGTTCTCCCAGCTGATGAATTGTTCTGCTCGAGTAAACAAATTTTCCTAATCTTTCTGTTCAAGCGCCATCTAC,1.09 RPM ratio (pull-down/input)
3,GATGATTGTTCTCCCAGCTGATGAATTCGCTAGGTCGAGTAAACAAATTTTCCTAATCTTTCTGTTCAAGCGCCATCTAC,0.797 RPM ratio (pull-down/input)
4,GATGATTGTTCTCCCAGCTGATGAATTCACAGTTTCGAGTAAACAAATTTTCCTAATCTTTCTGTTCAAGCGCCATCTAC,0.889 RPM ratio (pull-down/input)
5,GATGATTGTTCTCCCAGCTGATGAATTATAGACCTCGAGTAAACAAATTTTCCTAATCTTTCTGTTCAAGCGCCATCTAC,0.856 RPM ratio (pull-down/input)
6,GATGATTGTTCTCCCAGCTGATGAATTGTGCCCTTCGAGTAAACAAATTTTCCTAATCTTTCTGTTCAAGCGCCATCTAC,1.05 RPM ratio (pull-down/input)
7,GATGATTGTTCTCCCAGCTGATGAATTCTCTTGCTCGAGTAAACAAATTTTCCTAATCTTTCTGTTCAAGCGCCATCTAC,0.822 RPM ratio (pull-down/input)
8,GATGATTGTTCTCCCAGCTGATGAATTATGCATGTCGAGTAAACAAATTTTCCTAATCTTTCTGTTCAAGCGCCATCTAC,1.18 RPM ratio (pull-down/input)
9,GATGATTGTTCTCCCAGCTGATGAATTTTCCGAATCGAGTAAACAAATTTTCCTAATCTTTCTGTTCAAGCGCCATCTAC,0.938 RPM ratio (pull-down/input)
10,GATGATTGTTCTCCCAGCTGATGAATTTTGGTGGTCGAGTAAACAAATTTTCCTAATCTTTCTGTTCAAGCGCCATCTAC,0.921 RPM ratio (pull-down/input)
11,GATGATTGTTCTCCCAGCTGATGAATTGCGCGGATCGAGTAAACAAATTTTCCTAATCTTTCTGTTCAAGCGCCATCTAC,1.02 RPM ratio (pull-down/input)
12,GATGATTGTTCTCCCAGCTGATGAATTGAGTACGTCGAGTAAACAAATTTTCCTAATCTTTCTGTTCAAGCGCCATCTAC,0.879 RPM ratio (pull-down/input)
13,GATGATTGTTCTCCCAGCTGATGAATTGAGGTTTTCGAGTAAACAAATTTTCCTAATCTTTCTGTTCAAGCGCCATCTAC,0.978 RPM ratio (pull-down/input)
14,GATGATTGTTCTCCCAGCTGATGAATTGTGAAATTCGAGTAAACAAATTTTCCTAATCTTTCTGTTCAAGCGCCATCTAC,1.08 RPM ratio (pull-down/input)
15,GATGATTGTTCTCCCAGCTGATGAATTCTTTTGATCGAGTAAACAAATTTTCCTAATCTTTCTGTTCAAGCGCCATCTAC,0.969 RPM ratio (pull-down/input)
16,GATGATTGTTCTCCCAGCTGATGAATTTTACTTATCGAGTAAACAAATTTTCCTAATCTTTCTGTTCAAGCGCCATCTAC,1.07 RPM ratio (pull-down/input)
17,GATGATTGTTCTCCCAGCTGATGAATTTAATAACTCGAGTAAACAAATTTTCCTAATCTTTCTGTTCAAGCGCCATCTAC,0.971 RPM ratio (pull-down/input)
18,GATGATTGTTCTCCCAGCTGATGAATTAACGCTATCGAGTAAACAAATTTTCCTAATCTTTCTGTTCAAGCGCCATCTAC,0.961 RPM ratio (pull-down/input)
